The list shows a part of the results. Each Rep nickase domain was tested in vitro on the same pool of single strands (3 µM enzyme, 1 h, 37 °C); shown is the middle of each 90-letter strand. Uncut reads are compared with the no-enzyme pool on a log2 scale; more negative means more cut, near 0 not cut, and no call is made. Reads are scaled to the total; values above 0 arise when much of the pool is cut.

This assay concerns T1, Rep nickase domain of tomato golden mosaic virus.
T1 sequence (Rep 1-124, printed without the tag): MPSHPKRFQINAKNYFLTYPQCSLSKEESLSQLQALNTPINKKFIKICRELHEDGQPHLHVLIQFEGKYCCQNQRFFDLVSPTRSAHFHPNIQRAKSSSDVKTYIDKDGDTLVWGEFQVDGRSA
In words: uncleaved DNA left, log2 of reads against the no-enzyme library (log2 ratio); higher = less cleavage (more negative = more Rep cleavage of the k-mer); sequences stand for … in CTCGTCCG…ACCGGAGA
The protocol:
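A pool of 90-nt single-stranded DNAs with seven random bases just before the constant AC of the nick site (name = the seven bases) was cut by 3 µM recombinant His6-SUMO-tagged Rep nickase domain (300 nM DNA, 50 mM HEPES pH 8.0, 50 mM NaCl, 1 mM MnCl2, 1 h, 37 °C, three replicates). Uncut DNA was amplified and sequenced.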
Consider CTGCTAG, for which the “uncleaved DNA left (log2)” value came to 0.0366.

In the case of ATCATTA, the “uncleaved DNA left (log2)” value was -0.246.

TATAACG: the “uncleaved DNA left (log2)” value is -0.0675.

In the case of AACAGTT, the “uncleaved DNA left (log2)” value came out at 0.0205.

On to GTCGCCG, for which the “uncleaved DNA left (log2)” value was 0.0599.

As for ATGCCGG, the “uncleaved DNA left (log2)” value was -0.00218.

GTGATTA: the “uncleaved DNA left (log2)” value is 0.158.

As to GTATAGA, the “uncleaved DNA left (log2)” value was 0.192.

On to AACCTAG, for which the “uncleaved DNA left (log2)” value was 0.132.

As to TCTTCCG, the “uncleaved DNA left (log2)” value is -0.284.

In the case of AAGGGCG, the “uncleaved DNA left (log2)” value was -0.032.

AAAAATT: the “uncleaved DNA left (log2)” value was -2.12.

For the sequence TTAGAGC, the “uncleaved DNA left (log2)” value was -0.0398.

Consider CAAGACT, for which the “uncleaved DNA left (log2)” value is -0.264.

Regarding CCAGCAC, the “uncleaved DNA left (log2)” value was -0.00948.

For AGACGAG, the “uncleaved DNA left (log2)” value came out at 0.0194.

For AGATTCC, the “uncleaved DNA left (log2)” value is -0.108.

CCTGCAC: the “uncleaved DNA left (log2)” value was -0.0623.

Take GCATGCC: the “uncleaved DNA left (log2)” value was -0.022.

Turning to CACCGTG, the “uncleaved DNA left (log2)” value was -0.0161.

On to CACACAT, for which the “uncleaved DNA left (log2)” value came to 0.0547.

Take AAACCGT: the “uncleaved DNA left (log2)” value was determined as 0.0743.

For ATATCTC, the “uncleaved DNA left (log2)” value was -0.0556.

In the case of GGCGTAC, the “uncleaved DNA left (log2)” value came out at 0.0375.

For the sequence GCGTACG, the “uncleaved DNA left (log2)” value worked out at 0.0246.

TAGCCGC: the “uncleaved DNA left (log2)” value was -0.302.

With GTGTGTC, the “uncleaved DNA left (log2)” value came out at 0.000272.

Take AGTCTAT: the “uncleaved DNA left (log2)” value is -0.228.

On to ATGGGTC, for which the “uncleaved DNA left (log2)” value was -0.0982.

For ACCGGGG, the “uncleaved DNA left (log2)” value was found to be 0.164.

Take GGAAAGC: the “uncleaved DNA left (log2)” value turned out to be 0.0456.

Regarding ACTAAAC, the “uncleaved DNA left (log2)” value was -0.00746.

Turning to TGTTTTA, the “uncleaved DNA left (log2)” value was determined as 0.117.

For the sequence GGCTAGT, the “uncleaved DNA left (log2)” value is 0.0603.

As to TGGGGAC, the “uncleaved DNA left (log2)” value came to 0.236.

Regarding CAAGCCA, the “uncleaved DNA left (log2)” value is 0.0102.

TCGAAAA: the “uncleaved DNA left (log2)” value was 0.0175.

Turning to CGTACGA, the “uncleaved DNA left (log2)” value is -0.112.

In the case of TCCATGG, the “uncleaved DNA left (log2)” value was determined as 0.0226.

Consider GCGATAG, for which the “uncleaved DNA left (log2)” value amounted to 0.138.

The record behind these values is the supplement of paper PMC7826260.
